Measured values published in PubChem BioAssay AID1159614 (National Center for Advancing Translational Sciences (NCATS), 2016).
In all, about 45,000 compounds went through this assay and about 65 (0.1%) were called active. The call rests on the fitted dose curve; in most records, active means well fitted activation curve with a large enough effect; inconclusive means small, poorly fitted or top-dose-only effect; inactive means no such curve, though single readings can be large or run the other way. Some of the results follow.

Target: Galactocerebrosidase (Homo sapiens) (UniProt P54803)
UniProt P54803, sequence (P54803 whole entry, looked up): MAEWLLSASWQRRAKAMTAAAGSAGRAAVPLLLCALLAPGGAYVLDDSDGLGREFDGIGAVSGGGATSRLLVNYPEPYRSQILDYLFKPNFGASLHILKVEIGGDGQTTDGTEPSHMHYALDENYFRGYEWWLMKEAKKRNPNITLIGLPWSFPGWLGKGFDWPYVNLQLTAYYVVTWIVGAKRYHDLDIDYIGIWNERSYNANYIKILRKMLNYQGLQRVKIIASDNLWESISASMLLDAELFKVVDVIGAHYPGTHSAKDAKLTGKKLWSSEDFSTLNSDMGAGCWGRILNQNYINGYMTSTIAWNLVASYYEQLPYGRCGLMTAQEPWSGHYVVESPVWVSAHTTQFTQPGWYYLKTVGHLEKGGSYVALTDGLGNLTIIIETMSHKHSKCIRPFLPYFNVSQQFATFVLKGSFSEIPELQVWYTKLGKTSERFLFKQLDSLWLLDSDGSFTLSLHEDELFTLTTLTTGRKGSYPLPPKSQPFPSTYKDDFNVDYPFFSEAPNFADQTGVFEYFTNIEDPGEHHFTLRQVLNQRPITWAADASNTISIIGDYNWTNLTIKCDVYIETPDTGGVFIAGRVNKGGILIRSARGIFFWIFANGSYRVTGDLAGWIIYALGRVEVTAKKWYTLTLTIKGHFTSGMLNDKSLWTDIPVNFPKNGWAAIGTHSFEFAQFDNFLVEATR
Assay: A Novel Cell-Based Assay to Identify Small Molecules for B -Galactocerebrosidase; further: 0% is about no effect; nearly all actives have a fitted effect of over 65% in size
Conditions: 145M-Twi-hGALC-G270D cells (Twitcher mouse brain line with human GALC G270D), HMU-beta-Gal fluorescence, 48 h; series mostly up to 57.5 µM; activation: at the top concentration
Summary of the method: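 Fluorescence readout: HMU-β-gal cleavage by mutant GALC (0.1 mM final, citrate/phosphate pH 5.2 with 1 mg/mL taurocholate), stopped with carbonate/bicarbonate plus Triton X-100. Cells: murine Twitcher 145M-Twi expressing human G270D GALC; qHTS for activators.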

activation, inactive:
Cc1cc(C)cc(NC(=O)C(=O)NCC(c2cccnc2)N2CCc3ccccc32)c1 (configuration not stated) -15.1%
Cn1c(=O)c2sccc2n2c(CCC(=O)Nc3ccc(F)cc3)nnc12 -13.8%
COc1cccc(C(=O)c2sc(Nc3ccc(F)c(Cl)c3)nc2N)c1 -37.4%
CCC(C(=O)OC)n1nnc2sc(-c3ccccc3)cc2c1=O (configuration not stated) -10%
COc1ccc2c(c1)c(=O)c(C(=O)c1ccc(C)cc1)cn2Cc1ccccc1F -5.05%
CCOC(=O)c1ccc(CN(Cc2ccc(Br)cc2)S(=O)(=O)c2cccc(C(F)(F)F)c2)cc1 -0.868%
O=S(=O)(Nc1cccc(-c2ccc(N3CCOCC3)nn2)c1)c1cc(C(F)(F)F)ccc1Cl -7.32%
COc1ccccc1NC(=O)CN1CCN(CC(=O)Nc2ccc(F)c(F)c2)CC1 -12.5%
COc1ccc(C2c3c(-c4ccccc4O)n[nH]c3C(=O)N2CCc2ccccc2)cc1 (configuration not stated) -5.99%
COC(=O)c1ccc(Cl)cc1NC(=O)Nc1nnc(N(C)Cc2ccccc2)s1 -9%
CN(c1ccccc1)C(CNS(=O)(=O)c1ccccc1)c1ccccc1 (configuration not stated) -8.19%
O=C(CN1C(=O)C2CCCCN2c2ccc(C(=O)N3CCCC3)cc21)NCc1ccccc1F (configuration not stated) -12.6%
CCCCN(CC)CCNc1ncnc2onc(-c3ccc(Cl)cc3)c12 3.96%
Cc1ccc(N2C(=O)CS(=O)(=O)C23C(=O)N(Cc2ccccc2F)c2ccccc23)cc1Cl (configuration not stated) -12%
O=C(COc1ccccc1Cl)Nc1ccccc1OCc1cc(=O)n2ccccc2n1 4.49%
CNS(=O)(=O)c1cn(CC(=O)N2CCN(c3ccc(C)cc3C)CC2)cc1S(=O)(=O)NC -10.7%
CC(C)COc1ccc(Nc2ncnc3ccc(Br)cc23)cc1 29.3%
COc1ccc(Cc2nnc(C(=O)NCCCN3CCN(c4ccccc4F)CC3)o2)cc1OC -11.6%
Cc1cccc(NC(=O)NC2COc3ccccc3C2)c1C (configuration not stated) -13.6%
Cc1ccc(CN(Cc2ccco2)C(=O)c2cccc(C)c2)cc1 -12.9%
CNS(=O)(=O)c1cn(CC(=O)Nc2cccc(C(F)(F)F)c2)cc1S(=O)(=O)NC -13.8%
COC(=O)c1sccc1S(=O)(=O)N(CC(=O)NCc1ccc(F)cc1)c1ccc(C)c(C)c1 -2.02%
COc1ccc(CNc2nc(-c3ccco3)nn2C(=O)CC(C)C)cc1 -22.6%
CCOC(=O)c1[nH]c2ccccc2c1NC(=O)c1ccccc1OC -2.84%
CCc1ccc(CNC(=O)C(CC)n2nc(C)c3c(C)n(-c4ccccc4)nc3c2=O)cc1 (configuration not stated) -11.4%
Cc1cc(S(=O)(=O)n2ccnc2C(C)C)cc([N+](=O)[O-])c1C 4.58%
CCCNc1ccc(-c2nc(-c3ccco3)no2)cc1[N+](=O)[O-] -11.8%
O=C(Nc1cc(C(F)(F)F)ccc1Cl)c1ccc2c(c1)CCN2S(=O)(=O)c1ccccc1 -10.7%
Cc1ccc(CCNC(=O)c2ccc(CNS(=O)(=O)c3ccc(C)cc3)cc2)cc1 -21.6%
Cc1ccc(Cl)cc1N1CCN(C(=O)c2cn(CC(C)C)c(=O)c3c2c2ccccc2n3C)CC1 -7.56%
CCOC(=O)c1nc(Nc2ccc(Cl)cc2)c2c(C)noc2n1 -13.7%
COc1cccc(N2CC(NC(=O)C3CCCCC3)CC2=O)c1 (configuration not stated) -15.1%
Cc1cn2c(=O)cc(COc3cccc(NC(=O)c4ccccc4Cl)c3)nc2s1 -12%
COc1ccc(N2CCN(C(=O)c3ccc4c(c3)N(Cc3cc(C)ccc3C)C(=O)c3ccccc3S4=O)CC2)cc1 (configuration not stated) -16.4%
Cc1cc(C)c(Cn2c(=O)n(-c3ccccc3Cl)c(=O)c3c(C)c(C(=O)N(C)C)sc32)c(C)c1 1.95%
CCC(C)(C)C(=O)O[C@H]1C[C@@H](C)C=C2C=C[C@H](C)[C@H](CC[C@@H]3C[C@@H](O)CC(=O)O3)[C@H]21 -15.1%
Cc1ccc(Oc2nc3c(c(=O)n(Cc4ccccc4Cl)c(=O)n3C)n2C)cc1C -8.55%
COc1ccc(-c2cc3nc(C)c(CCC(=O)Nc4ccc(F)cc4F)c(C)n3n2)c(OC)c1 -15.8%
CC(Oc1ccccc1)C(=O)Nc1nnc(S(=O)(=O)N2CCCCCC2)s1 (configuration not stated) -9.09%
COc1ccc(C(=O)Nc2nnc(S(=O)(=O)N3CCN(c4ccc(C)cc4)CC3)s2)cc1 -7.59%
Cc1ccccc1C(=O)Nc1cccc(-c2cn3cccnc3n2)c1 -22.6%
Cc1cc(=O)n(CC(=O)N2CCN(c3ccc(F)cc3)CC2)c2c1c(C)nn2C -38.2%
COc1ccc(NCc2cc3ccc(OC)cc3n(CC(=O)Nc3cc(Cl)ccc3C)c2=O)cc1 -15.7%
CC(=O)c1ccc(N2CCN(C(=O)CCS(=O)(=O)c3ccc4c(c3)oc(=O)n4C)CC2)cc1 -11.4%
CCOc1ccc(N2CC(C(=O)NCc3nnnn3-c3ccc(C)c(C)c3)CC2=O)cc1 (configuration not stated) -18.5%
Nc1c(-c2nc(-c3ccc(F)cc3)cs2)c2ccccn2c1C(=O)c1ccc2c(c1)OCO2 -7.63%
CCOc1ccc(NS(=O)(=O)c2ccc3[nH]cc(C(=O)NCC4CCCO4)c(=O)c3c2)cc1 (configuration not stated) -10.8%
CCc1cccc(NC(=O)CN(C)S(=O)(=O)c2cccc3cccnc23)c1 -6.71%
CC1CCc2c(sc(NC(=O)c3cc4nc(-c5ccc(Cl)cc5)cc(C(F)(F)F)n4n3)c2C#N)C1 (configuration not stated) -16.5%
Nc1ccc(C(=O)O)c(O)c1 -12.6%
CCSc1ncc(Cl)c(C(=O)Nc2sc3c(c2C(=O)NC)CCCC3)n1 -22.4%
CC(Oc1ccccc1F)C(=O)Nc1ccc(-c2nc3ccccc3s2)cc1 (configuration not stated) 19.8%
Cc1ccc(Cl)cc1NC(=O)CN1C(=O)C(C)(C)c2cc(S(=O)(=O)N3CCCCC3)ccc21 -9.21%
CC(=O)c1cccc(NC(=O)c2cc3c(s2)-c2c(C)cccc2OC3)c1 4.86%
COc1ccc(S(=O)(=O)c2cnc(SCC(=O)Nc3cc(F)ccc3C)[nH]c2=O)cc1Cl -0.751%
CCC1CCCCN1C(=O)c1sc(-n2nc(C)c(Cc3ccccc3)c2C)nc1C (configuration not stated) -27.4%
CCc1ccc2c(c1)NC(c1ccc(OC)cc1)=NC(c1ccncc1)=N2 -12.6%
CCOC(=O)c1ccc(OC(=O)c2cn(-c3cccc(OC)c3)c(=O)c3ccccc23)cc1 1.53%
COc1cc(/C=C/c2nc(C#N)c(N3CCC(C)CC3)o2)cc(OC)c1OC -3.5%
CCOc1ccccc1NC(=O)C(C)N(c1ccccc1)S(C)(=O)=O (configuration not stated) 2.31%
CC(C)CCN(C(=O)Nc1ccc(Cl)c(Cl)c1)C(C)c1cccs1 (configuration not stated) -13.2%
COc1cccc(OC(=O)CSc2nnc(-c3ccc4c(c3)OCO4)o2)c1 -0.866%
Cc1cccc(-c2nc3c4ccccc4nc(NCc4ccc(F)cc4)n3n2)c1 -7.24%
O=C1Nc2ccc(Cl)cc2[C@@](C#CC2CC2)(C(F)(F)F)O1 -11.4%
CCOC(=O)c1c(S(=O)(=O)NCC(=O)NCc2ccccc2)c(C)n(C)c1C -4.55%
Cc1ncc(CO)c(CN)c1O -10.1%
COc1ccc(NC(=O)C(NC(=O)/C=C\c2ccc3c(c2)OCO3)c2ccccc2)cc1 (configuration not stated) -6.92%
Cc1ccc2c(c1)N(CCCC(=O)NCc1cccc(F)c1)C(=O)CO2 1.21%
CSc1ncc(C(=O)N2CCN(c3cccc(C(F)(F)F)c3)CC2)c(C)n1 2.15%
O=C(c1ccccc1)c1ccccc1 -13.2%
COc1cccc(-n2c(=O)c3sc4ccccc4c3n(CC(=O)Nc3ccccc3C)c2=O)c1 -20.1%
CCCN(CCC)CCCNC(=O)c1cc2c(=O)[nH]c3ccccc3c2n1C -18%
COc1ccc(C2N3CC4(C)CN2CC(c2ccccc2)(C3)C4=O)cc1OC (configuration not stated) -7.77%
COc1ccc(C2CC(=O)c3cc(-c4nc(-c5cccc([N+](=O)[O-])c5)cs4)c(=O)n(-c4ccc(OC)cc4)c3C2)cc1 (configuration not stated) -12%
O=C(CSc1c2c(nc3cc(Cl)ccc13)CCCC2)NCc1ccccc1Cl -13.4%
Cc1ccc(NC(=O)C2CCN(S(=O)(=O)c3cc(-c4noc(C)n4)ccc3C)CC2)c(C)c1 -1.56%
CC(CNC(=O)CCS(=O)(=O)c1cc2c(cc1Cl)NC(=O)CO2)c1ccccc1 (configuration not stated) -11.1%
CCOC(=O)c1ccccc1NC(=O)CCc1nc(-c2ccc(C)cc2)no1 -24.9%
O=C1c2ccccc2-c2onc3c(NCCO)cc(NC4CCCCC4)c1c23 -7%
COc1ccc(C(CNC(=O)COc2cc(C)cc(C)c2)N2CCOCC2)cc1 (configuration not stated) -4.62%
Cc1c(C(=O)Nc2ccc(F)cc2F)sc2nc3n(c(=O)c12)N=C(c1ccccc1)CS3 -12%
CC(Sc1oc(-c2cccs2)nc1S(=O)(=O)c1ccccc1)c1ccccc1 (configuration not stated) -9.82%
Cn1nccc1C(=O)NCc1ccc2c(c1)CCN2C(=O)c1ccc(Cl)cc1 -16%
CCc1ccc(Oc2c(C(F)(F)F)oc3c(CN4CCCC(C)C4)c(O)ccc3c2=O)cc1 (configuration not stated) -12%
COc1ccc(N2CCN(c3csc4ccccc4c3=O)CC2)cc1 -8.1%
CCc1ccc(NC(=O)c2nn(-c3ccc(OC)cc3)c(=O)c3c2c2ccccc2n3C)cc1 -1.39%
CCCCOc1ccc(Cn2c(=O)sc3ccccc32)cc1 -6.82%
O=C(Nc1cccc(NC(=O)c2ccccc2Cl)c1)c1cccc(Br)c1 -34.6%
C=C(C)C(=O)OCC(O)CO (configuration not stated) -15.3%
CCc1ccccc1NC(=O)C1CCCN(c2cnccn2)C1 (configuration not stated) -14.5%
Cc1ccc(NC(=O)CSc2nc(=O)cc(N)n2CCc2ccccc2)cc1 -15.6%
CCOc1nc2cccc(C(=O)O)c2n1Cc1ccc(-c2ccccc2-c2nn[nH]n2)cc1 13.1%
COc1ccc(NC(=O)CCCN2C(=O)COc3ccc(C)cc32)cc1OC -5.67%
COc1cc(-c2cc(OC)c3c(C)oc(C)c3c(=O)c2)ccc1OC(=O)c1cccc(Cl)c1 5.13%
CCOC(=O)c1ccc(NC(=O)c2nn(C)c3c2COc2ccccc2-3)cc1 -10.6%
Cc1ccc(S(=O)(=O)c2nnn3c2nc(NCc2ccccc2Cl)c2sccc23)cc1 -11%
CC(C)c1ccc(OCc2cc(=O)n3c(-c4ccccc4)csc3n2)cc1 -25.9%
